Entries after “also recorded” stand apart in the source; their conditions may differ.
Tests used:
[1] = test system: L540cy xenograft; assay: In vivo efficacy in cell line xenograft model; parameters: species or system SCID mice; conditions: L540cy cell line-derived xenograft; FIG. 4A, 4C, 4D
Experimental: (§1) The in vivo efficacy of CD25 ADCs was evaluated in three xenograft models that express CD25 (DEL, L82, L540cy) in either SCID (DEL, L540cy) or NSG mice (L82). To conduct the efficacy experiments, 5×10^6 cells were injected subcutaneously into 5 female mice per group. Mice were randomly divided to study groups and dosed with test article via intraperitoneal injection once the tumors reached approximately 100 mm^3. For the L82 model in NSG mice, all mice were pre-treated with 10 mg/kg human IVIG 24 hours prior to treatment. Animals were euthanized when tumor volumes reach 800-1000 mm^3. Tumor volume was calculated with the formula (volume=1/2×length×width×width). Mice showing durable regressions were terminated around day 60.

[2] = test system: cynomolgus monkeys; assay: Repeat-dose toxicology study and Treg depletion in non-human primates; type: in vivo, cynomolgus monkey
Experimental: To evaluate and compare Treg depletion of CD25 antibody clone 123 MMAE ADC, detuned CD25 antibody SG25Ab-9 MMAE ADC and a non-binding IgG1 MMAE ADC, male cynomolgus macacques were administered an intravenous bolus dose of 6 mg/kg ADC on days 1, 22, and 43. Exploratory FACS analysis was performed on peripheral blood samples to evaluate effects on leukocyte subpopulations and potential toxicity.
Samples used for flow cytometric analysis were collected in EDTA-coated tubes twice during acclimation on days −12 and −7, and at 48, 96, 168, and 336 hrs post-Day 1 dose, prior to dosing on Days 22 and 43, and at 48, 96, and 168 hrs post-Day 43 dose. […]
To prepare cells for FACS analysis, one vial of each sample was thawed at 37° C. and transferred into 1 ml of RPMI 1640+10% FBS (R10) media in a deep well 96-well plate. […] Cells were then resuspended in 150 μL staining buffer and analyzed on an NXT Attune flow cytometer. Flow cytometry data was analyzed using FlowJo software. […] Absolute numbers were calculated by multiplying the total lymphocyte count acquired from hematology (cells/L×109) on fresh whole blood with the frequency of each lymphocyte subpopulation within the live/single cell/lymphocyte gate determined through flow cytometry. […]

[3] = test system: CD25hi Tregs and CD25lo Tregs; assay: Treg suppression assay (Treg CD8+ co-culture); type: cell-based, human; conditions: Tregs to CD8+ T cells 1:2, CD3/CD28 beads, 4 days, 1, 3 or 10 μg/mL; FIG. 18B
Experimental: A Treg suppression assay was performed using the human Treg Suppression Inspector Kit (Miltenyi #130-092-909) according to manufacturer instructions. Cryopreserved human peripheral blood CD8+ T cells (Stem Cell Technologies, 200-0164) and CD4+CD25+CD127low Tregs (Stem Cell Technologies, 200-0123) from 2 normal donors were thawed and CD8+ T cells were labeled with Cell Trace™ CFSE dye (Invitrogen). Cells were mixed at ratio of Tregs to CD8+ T cells (1:2) in 96-well round-bottom plates, stimulated with CD3/CD28 beads (Treg suppression inspector kit, Miltenyi #130-092-909), and treated with CD25 antibody SG25Ab-9 or detuned CD25 antibody SG25Ab-9 YH98A MMAE ADC, at 1, 3 or 10 μg/mL, as well as non-targeting control (Isotype ADC) at 10 mg/mL. After 4 days of incubation at 37C and 5% CO2, cells were collected, washed in PBS, and stained with a Zombie Aqua viability dye (Biolegend #423102) for 15 minutes at room temperature. Cells were then washed in PBS with 2% FBS and stained with anti-hCD25-PE (Biolegend #302606), anti-hCD3-PE/Cy7 (Biolegend #300316), anti-hCD8-AF700 (Biolegend (#344724), and anti-CD4-APC Fire 750 (Biolegend #344638) for 30 minutes at 4C. Cells were washed twice, resuspended in cell staining buffer and acquired on an Attune NxT flow cytometer and Ultracomp ebeads Compensation Beads (ThermoFisher #01-2222-42) were used to compensate multi-fluorochromes.

[4] = test system: Tregs in tumors, spleen and PBMC; assay: Treg depletion in MC38 tumor-bearing human CD25 transgenic mice (flow cytometry); type: in vivo, mouse
Experimental: To test ADC-mediated antitumor activity and Treg depletion in a syngeneic tumor model, the C57BL/6-Il2ratml(IL2RA) mice were implanted with subcutaneous MC38 murine colon carcinoma tumors. When tumors reached ˜80-100 mm^3, ADCs were administered at a dose of 1 mg/kg every three days for a total of 3 doses. ADC activity was compared to an anti-PD1 control and IgG1 ADC control. To assess the extent of Treg depletion in tumors compared to spleen and PBMC, mice were administered anti-CD25 ADC at a dose of either 3, or 6 mg/kg every three days for a total of 3 doses and compared to an IgG1 ADC control. The impact to Tregs was assessed in tumors, spleen, and PBMC by flow cytometry at 2 days post the second dose.
The Treg depletion by CD25 antibody SG25Ab-9 MMAE ADC was measured in a colon cancer (MC38) xenograft model of a human CD25 transgenic mouse. […] Two days after the third dose, untreated mice were analyzed for CD25 expression by flow cytometry.

[5] = test system: L82 xenograft; assay: In vivo efficacy in cell line xenograft model; parameters: species or system NSG mice; conditions: FIG. 4B, FIG. 11A at 1.2 mg/kg
Experimental: as §1

[6] = test system: L540cy cells; assay: In vitro cytotoxicity towards CD25-expressing lymphoma cells (CellTiter-Glo); type: cell-based, human; conditions: 96 hours
Experimental: Cells were incubated with ADCs for 96 hours at 37° C. A non-binding ADC was included as a negative control. Cell viability was measured using CellTiter-Glo (Promega) according to the manufacturer's instructions. Cells (ca. 500-1000 cells/well) were seeded onto a 96-well culture plate with a clear bottom in culture medium. Dilutions of ADC were added to each well (2000 ng/mL to 0 ng/mL) and the samples were incubated for 96 hours at 37° C. Luminescence was measured using a plate reader (Envision 4605). The data was fit using Graph Pad software and an IC50 was calculated.

[7] = test system: purified human CD8 T cells; assay: In vitro cytotoxicity towards purified human CD8 T cells; type: cell-based
Experimental: (§2) Purified human Tregs or CD8 T cells (acquired from either Astarte, Bothell, WA or […] Technologies, Vancouver, BC, Canada) were cultured in the presence of anti-CD3/CD28 beads (ThermoFisher) and incubated with ADCs for 96 hours. Cell viability was assessed using Cell Titer-Glo (Promega, Madison, WI).

[8] = test system: purified human Tregs; assay: In vitro cytotoxicity towards purified human Treg cells; type: cell-based
Experimental: as §2

B1: SG25Ab-9 MMAE ADC (conjugate)
heavy: QVQLVQSGAEVKKPGESLKISCKGSGYSSTSYWIGWVRQMPGKGLEWMGIIYPGDSDTRYSPSFQGQVTISADKSISTAYLQWSSLKASDTAMYYCARLGSYYAFDIWGRGTMVTVSS[human IgG1 constant region left out here]
light: QSALTQPASVSASPGQSITISCTGTSSDVGAYIYVSWYQQLSGKPPKLILYDVSKRPSGISDRFSGSKSGNTASLTISGLQADDEADYYCSSYTRSSTWVFGGGTQLTVLGQPKAAPSVTLFPPSSEELQANKATLVCLISDFYPGAVTVAWKADSSPVKAGVETTTPSKQSNNKYAASSYLSLTPEQWKSHRSYSCQVTHEGSTVEKTVAPTECS
modifications: non-natural residues
- in vivo anti-tumor activity [1]: showed in vivo anti-tumor activity
- tolerability ([2]; 6 mg/kg bolus intravenous once every three weeks, three doses): well tolerated
- peripheral Treg cells compared to baseline ([2]; 6 mg/kg intravenous q3wx3, FIG. 17A): marked decrease in Treg cells compared to baseline; also recorded: significant and prolonged reductions in Treg frequency with no recovery at any time points
- CD25hi Tregs and CD25lo Tregs counts [3]: kills Tregs, regardless of CD25 expression levels
- Treg cells in the tumor (intratumoral Tregs) ([4]; 3 or 6 mg/kg, FIG. 16C, 16E): substantially reduced Treg cells in the tumor
- Treg cells in PBMC ([4]; FIG. 16A): reduced Treg cells in PBMC and splenocytes
- Treg cells in splenocytes ([4]; FIG. 16B): reduced Treg cells in PBMC and splenocytes
- in vivo anti-tumor activity [5]: showed in vivo anti-tumor activity
- in vitro cytotoxicity [6]: anti-tumor activity towards L540cy cells similar to CD30 antibody cAC10 MMAE ADC
- effect on CD8 T cells from human peripheral blood ([7]; FIG. 5B, 5D): did not impact CD8 T cells
- in vitro cytotoxicity towards purified human CD8 T cells ([7]; anti-CD3/CD28 beads, 96 hours, FIG. 13B): not cytotoxic towards purified human CD8 T cells
- effect on Treg cells from human peripheral blood ([8]; FIG. 5A, 5C): killed Tregs
- in vitro cytotoxicity towards purified human Treg cells ([8]; stimulated with CD3/CD28 beads, 96 hours, FIG. 13A): less cytotoxic towards purified human Treg cells than CD25 antibody SG25Ab-9 tesirine ADC

From US20250295801A1, “CD25 ANTIBODIES, ANTIBODY DRUG CONJUGATES, AND USES THEREOF” (Seagen Inc., priority 2024, published 2025)
